# Some of the results follow.
# What was measured:
# Experiment in all cases: glycan array binding signal (z-score within array); higher = stronger binding
# Conditions in all cases: glycan notation: IUPAC condensed, linker removed
# [1] = target: Neu5Ac(a2-3)Gal(b1-4)GlcNAc(b1-3)Gal(b1-4)GlcNAc
# Method in brief: (§1)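 The binding signal is a Z-score computed within each array and averaged over linkers. Arrays of the same protein sequence at different concentrations or buffers were also averaged together. Data originate from 3228 arrays in the Consortium for Functional Glycomics database, kept only where the protein sequence was available.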
# [2] = target: Neu5Ac(a2-3)Gal(b1-4)GlcNAc(b1-3)Gal(b1-4)GlcNAc(b1-2)Man(a1-3)[Neu5Ac(a2-3)Gal(b1-4)GlcNAc(b1-3)Gal(b1-4)GlcNAc(b1-2)Man(a1-6)]Man(b1-4)GlcNAc(b1-4)GlcNAc
# Method in brief: as §1
# [3] = target: Neu5Ac(a2-3)Gal(b1-4)GlcNAc(b1-3)Gal(b1-4)GlcNAc(b1-3)Gal(b1-4)GlcNAc
# Method in brief: as §1
# [4] = target: Neu5Ac(a2-3)Gal(b1-4)GlcNAc(b1-3)Gal(b1-4)GlcNAc(b1-3)Gal(b1-4)GlcNAc(b1-2)Man(a1-3)[Neu5Ac(a2-3)Gal(b1-4)GlcNAc(b1-3)Gal(b1-4)GlcNAc(b1-3)Gal(b1-4)GlcNAc(b1-2)Man(a1-6)]GalNAc
# Method in brief: as §1
# [5] = target: Neu5Ac(a2-3)Gal(b1-4)GlcNAc(b1-3)Gal(b1-4)GlcNAc(b1-3)GalNAc
# Method in brief: as §1
# [6] = target: Neu5Ac(a2-3)Gal(b1-4)GlcNAc(b1-3)Gal(b1-4)GlcNAc(b1-3)[Neu5Ac(a2-3)Gal(b1-4)GlcNAc(b1-3)Gal(b1-4)GlcNAc(b1-6)]GalNAc
# Method in brief: as §1
# [7] = target: Neu5Ac(a2-3)Gal(b1-4)GlcNAc(b1-3)Gal(b1-4)GlcNAc(b1-6)[Gal(b1-3)]GalNAc
# Method in brief: as §1
# [8] = target: Neu5Ac(a2-3)Gal(b1-4)GlcNAc(b1-3)Gal(b1-4)[Fuc(a1-3)]GlcNAc
# Method in brief: as §1
# [9] = target: Neu5Ac(a2-3)Gal(b1-4)GlcNAc(b1-3)GalNAc
# Method in brief: as §1
# [10] = target: Neu5Ac(a2-3)Gal(b1-4)GlcNAc(b1-3)[Neu5Ac(a2-3)Gal(b1-4)GlcNAc(b1-6)]GalNAc
# Method in brief: as §1
# [11] = target: Neu5Ac(a2-3)Gal(b1-4)GlcNAc(b1-6)GalNAc
# Method in brief: as §1
# [12] = target: Neu5Ac(a2-3)Gal(b1-4)GlcNAc(b1-6)[Gal(b1-3)]GalNAc
# Method in brief: as §1
# [13] = target: Neu5Ac(a2-3)Gal(b1-4)GlcNAc(b1-6)[Neu5Ac(a2-3)Gal(b1-3)]GalNAc
# Method in brief: as §1
# [14] = target: Neu5Ac(a2-3)Gal(b1-4)GlcNAc6S
# Method in brief: as §1
# [15] = target: Neu5Ac(a2-3)Gal(b1-4)[Fuc(a1-3)]GlcNAc
# Method in brief: as §1
# [16] = target: Neu5Ac(a2-3)Gal(b1-4)[Fuc(a1-3)]GlcNAc(b1-2)Man
# Method in brief: as §1
# [17] = target: Neu5Ac(a2-3)Gal(b1-4)[Fuc(a1-3)]GlcNAc(b1-3)Gal
# Method in brief: as §1
# [18] = target: Neu5Ac(a2-3)Gal(b1-4)[Fuc(a1-3)]GlcNAc(b1-3)Gal(b1-4)GlcNAc
# Method in brief: as §1
# [19] = target: Neu5Ac(a2-3)Gal(b1-4)[Fuc(a1-3)]GlcNAc(b1-3)Gal(b1-4)[Fuc(a1-3)]GlcNAc(b1-3)Gal(b1-4)[Fuc(a1-3)]GlcNAc
# Method in brief: as §1
# [20] = target: Neu5Ac(a2-3)Gal(b1-4)[Fuc(a1-3)]GlcNAc(b1-3)GalNAc
# Method in brief: as §1
# [21] = target: Neu5Ac(a2-3)Gal(b1-4)[Fuc(a1-3)]GlcNAc(b1-6)[Gal(b1-3)]GalNAc
# Method in brief: as §1
# [22] = target: Neu5Ac(a2-3)Gal(b1-4)[Fuc(a1-3)]GlcNAc(b1-6)[Neu5Ac(a2-3)Gal(b1-3)]GalNAc
# Method in brief: as §1
# [23] = target: Neu5Ac(a2-3)Gal(b1-4)[Fuc(a1-3)]GlcNAc6S
# Method in brief: as §1
binder,measurement,setting,value
Epa15 (Candida glabrata) (protein) MGSSHHHHHHSSGLVPRGSHMASDPTTFPLGCSPEFTKTKKGLSMELYRYDYLPPGSYPCWDSAYLNPSYPRTGYKAKKLIATVDGVSGDINFKFNPKFGCKAIPDYLPSNFNYHEPITITNFTMILYGYFMPKTTAFHTFYVTADDLLFMNFGAGNAFDCCRREETADKFGNYAAYSVWGKKSLKNELTVYLHTGVYYPIRLFYNNRDYIAQLDIRFKTEHSNAIITNFTDYFYSVDDSSLGCPGLI,glycan array binding signal (z-score),[1],-0.109
same,glycan array binding signal (z-score),[2],0.079
same,glycan array binding signal (z-score),[3],-0.448
same,glycan array binding signal (z-score),[4],2.56
same,glycan array binding signal (z-score),[5],-0.234
same,glycan array binding signal (z-score),[6],1.06
same,glycan array binding signal (z-score),[7],0.393
same,glycan array binding signal (z-score),[8],-0.542
same,glycan array binding signal (z-score),[9],-0.479
same,glycan array binding signal (z-score),[10],-0.483
same,glycan array binding signal (z-score),[11],0.478
same,glycan array binding signal (z-score),[12],-0.062
same,glycan array binding signal (z-score),[13],-0.592
same,glycan array binding signal (z-score),[14],-0.135
same,glycan array binding signal (z-score),[15],-0.41
same,glycan array binding signal (z-score),[16],-0.56
same,glycan array binding signal (z-score),[17],-0.443
same,glycan array binding signal (z-score),[18],0.174
same,glycan array binding signal (z-score),[19],-0.458
same,glycan array binding signal (z-score),[20],0.763
same,glycan array binding signal (z-score),[21],1.87
same,glycan array binding signal (z-score),[22],1.41
same,glycan array binding signal (z-score),[23],-0.461
